Among all 48,000 compounds or so, about 1,200 (2.5%) were called active. Not shown: some 2% with an inconclusive outcome.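 How the source made its calls: active means activation of at least 60% and not above a set upper limit (about 1 call in 100 departs from these limits); inconclusive means activation of 40% to 60%, or above that upper limit; inactive means activation under 40%.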 The list shows a part of the results.

In the test the target is Probable G-protein coupled receptor 32 (Homo sapiens) (UniProt O75388). Nature of the test: qHTS for Agonists of Human Resolvin D1 Receptor DRV1. Further: 0% is about no effect. To be noted: CHO-K1 GPR32 beta-arrestin PathHunter luminescence, 90 min; at 76.9 µM; active compounds read high; zero percent set by DMSO-only wells. Put shortly: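 GPR32 activation in stably transfected CHO-K1 cells, detected as beta-arrestin recruitment by enzyme-fragment complementation. Compound exposure: 90 min, 37 °C.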
Chain of UniProt O75388 (O75388 whole entry, looked up, the tested form may be a part): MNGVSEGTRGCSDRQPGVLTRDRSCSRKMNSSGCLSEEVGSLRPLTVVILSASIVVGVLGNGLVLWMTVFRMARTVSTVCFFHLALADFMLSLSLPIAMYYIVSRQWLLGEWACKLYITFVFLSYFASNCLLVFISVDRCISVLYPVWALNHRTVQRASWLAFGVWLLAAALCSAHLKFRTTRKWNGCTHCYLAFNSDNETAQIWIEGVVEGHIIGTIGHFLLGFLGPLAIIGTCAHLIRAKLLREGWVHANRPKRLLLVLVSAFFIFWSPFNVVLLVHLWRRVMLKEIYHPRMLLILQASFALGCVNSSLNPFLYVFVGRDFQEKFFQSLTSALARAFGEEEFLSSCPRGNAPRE
(qHTS replaces the single test concentration by a dilution series.)
Regarding `COCc1cc(C)nc2c1C(=O)NC(c1ccc(F)cc1)N2Cc1ccccc1` (centres undefined), the activation is inactive: -31.8%.

As to `COc1ccc(-c2nnc(SCC(=O)NCCC(C)C)nc2-c2ccc(OC)c(OC)c2)cc1OC`, the activation is inactive: -15.3%.

As for `Cc1ccc(CNCc2ccccc2Cl)s1`, the activation is inactive: 16.9%.

On to `CCCCNC(=O)c1ccc2c(=O)n(Cc3ccc(OC)cc3)c(=O)[nH]c2c1`, for which the activation is inactive: -5.75%.

Turning to `CCc1cccc(C)c1NC(=O)Cn1nc(C)n2cccc2c1=O`, the activation was inactive: -19.8%.

Regarding `COC(=O)c1cc2oc(C)cc2n1CC(=O)Nc1ccc(C(C)C)cc1`, the activation was inactive: -30.9%.

Consider `N#Cc1c(C(F)(F)F)cc(-c2cccs2)nc1SCc1ccc(F)cc1`, for which the activation was inactive: -3.52%.

Regarding `CCCCOC(=O)c1ccc(N)cc1`, the activation was inactive: -6.18%.

Take `CCOC(=O)C(C)Sc1ccc2nnc(CCNS(=O)(=O)c3ccc(C)cc3)n2n1` (centres undefined): the activation was inactive: -8.17%.

With `CC1=C(C(=O)NCc2cccc(F)c2)C2(CCCCC2)OC1=O`, the activation is inactive: 8.62%.

`CC1Cc2ccccc2N1C(=O)CSc1nc2ccc(NC(=O)COc3ccccc3)cc2s1` (centres undefined): the activation was inactive: 5.9%.

On to `Cc1ccccc1CSc1cn(CC(=O)N2CCCCC2)c2ccccc12`, for which the activation is inactive: -26.7%.

Consider `CCOC(=O)c1c(C)oc2nc(C)nc(NCC3CCN(Cc4ccc(C)cc4)CC3)c12`, for which the activation is inactive: -9.94%.

Consider `O=C(Nc1cccc(C(F)(F)F)c1)c1cnn(-c2cccc(F)c2)c1C1CCNCC1`, for which the activation was inactive: -8.37%.

Consider `CC(C)(C)c1ccc(C(=O)NCCc2csc(-c3ccc(Cl)cc3)n2)cc1`, for which the activation was inactive: -12.4%.

For `Cc1ccc(NC(=O)CCS(=O)(=O)c2ccc(Br)s2)c(Br)c1`, the activation is active: 70.9%.

On to `CCOc1ccc(CCNC(=O)c2oc(=O)c3ccccc3c2-c2ccc(C)cc2)cc1OCC`, for which the activation was inactive: -4.93%.

Turning to `Cc1ccc(Nc2c(-c3ccc(C)s3)nc3ccccn23)cc1`, the activation was inactive: 11%.

As for `CCCCCC1Nc2cc(C(F)(F)F)c(S(N)(=O)=O)cc2S(=O)(=O)N1` (centres undefined), the activation was inactive: 6.72%.

For `COC(=O)c1cccc(NC2=NS(=O)(=O)c3ccccc32)c1`, the activation is inactive: -13.6%.

With `Cc1cc(Cl)ccc1NC(=O)Cc1ccc(NC(=O)N2CCCCc3ccccc32)cc1`, the activation is inactive: -8.01%.

Take `COc1ccc(C)cc1NC(=O)C1CCN(S(=O)(=O)c2cc(Br)cc3c2N(C(C)=O)CC3)CC1`: the activation is inactive: -12.6%.

With `CCn1c(SCc2c(F)cccc2Cl)nc(=O)c2c(C(=O)OC)cc(C3CC3)nc21`, the activation is inactive: 1.23%.

Consider `O=C(c1ccccc1Br)N(Cc1ccco1)Cc1ccco1`, for which the activation was inactive: -16.3%.

On to `CCc1ccc(C(=O)c2cn(CC(=O)Nc3cccc(OC)c3)c3cc4c(cc3c2=O)OCO4)cc1`, for which the activation is inactive: 24.4%.

For the compound `COc1ccc(C)c2sc(N3CCN(C(=O)c4cccc(F)c4)CC3)nc12`, the activation was inactive: -0.533%.

Take `CCOc1ccccc1NC(=O)N(Cc1ccc(C)o1)C1CCN(C(C)=O)CC1`: the activation is inactive: -12.6%.

On to `Cc1ccc(-c2cc3ncc4c(n3n2)-c2cc(F)ccc2OC4)cc1`, for which the activation was inactive: -5.23%.

Take `CCOC(=O)CNC(=O)N1CCCN(S(=O)(=O)c2ccc3c(ccn3CC)c2)CC1`: the activation is inactive: -4.82%.

For `CCc1nn2c(=O)cc(COC(=O)c3ccccc3)nc2s1`, the activation was inactive: -50.3%.

In the case of `COc1ccc(C)cc1NC(=O)C1CCCN(c2ncnc3onc(C)c23)C1` (centres undefined), the activation was inactive: 6.45%.

For `CCOc1ccccc1NC(=O)CN(C)S(=O)(=O)c1ccc(C(=O)N2CCOCC2)s1`, the activation is inactive: 5.49%.

With `O=c1c(=O)n(-c2ccc(F)c(F)c2)ccn1Cc1ccc(F)cc1Cl`, the activation was inactive: -12%.

Take `CCOc1ccc(NC(=O)N2CCN(c3nnc(C)c4c(C)n(-c5ccccc5)nc34)CC2)cc1`: the activation is inactive: -11.3%.

With `CN(C)/N=N/c1nc[nH]c1C(N)=O`, the activation is inactive: 1.02%.

Consider `CCOC(=O)C1=C(CS(=O)(=O)c2ccc(F)c(C)c2)NC(=O)NC1c1ccccc1OC` (centres undefined), for which the activation is inactive: -1.39%.

For `CCCc1nnc(NC(=O)c2nc(SCC)ncc2Cl)s1`, the activation was inactive: 3.16%.

As to `CCc1nn(CC(=O)N2CCCCC2)c(=O)c2cc3occc3n12`, the activation is inactive: -16.2%.

As to `CCOC(=O)c1noc2ncn(CC(=O)Nc3cccc(C(F)(F)F)c3)c(=O)c12`, the activation is active: 64.8%.

For `Cc1cccc(NC(=O)CCn2cnc3ccccc3c2=O)c1`, the activation was inactive: -9.17%.

Turning to `CCOc1ccc(-n2nc3ccc(NC(=O)c4ccc(OC)c(Cl)c4)cc3n2)cc1`, the activation is inactive: 8.15%.

Turning to `Cc1cc(Nc2cccc(Cl)c2)nc2ccc(NC(=O)c3cncc(Br)c3)cc12`, the activation is inactive: -26.4%.

On to `O=C(CC1N=C2c3ccccc3N=C(SCc3ccccc3Cl)N2C1=O)NCCc1ccccc1` (centres undefined), for which the activation was inactive: -3.53%.

On to `CCCCn1c(=O)n(-c2cc(OC)ccc2OC)c(=O)c2c3c(sc21)CN(C(C)=O)CC3`, for which the activation was inactive: -6.66%.

Consider `COc1ccc(-n2nc(C(=O)Nc3cc(C)ccn3)c3c4ccccc4n(C)c3c2=O)cc1`, for which the activation is inactive: -7.37%.

As for `CCC(C(=O)NCc1ccccc1OC)n1nc(C)n2c(cc3occc32)c1=O` (centres undefined), the activation was inactive: -20.3%.

On to `Cc1ccc2c(=O)cc(C(=O)Nc3sc4c(c3C(=O)NCC3CCCO3)CCC4)oc2c1` (centres undefined), for which the activation was inactive: 7.69%.

For the compound `Cc1oc(-c2ccc(C(=O)NCc3ccccc3)cc2)nc1CN1CCc2ccccc21`, the activation was inactive: -3.4%.

Consider `COc1ccc(-c2nc3ccccc3s2)cc1NC(=O)c1ccccc1F`, for which the activation is inactive: -3.02%.

Regarding `O=C(Cc1cccs1)NC1CC(=O)N(c2ccc(F)cc2)C1` (centres undefined), the activation was inactive: 0.987%.

Take `CSc1cccc(NC(=O)Nc2ccccc2OCc2cc(=O)n3cc(C)ccc3n2)c1`: the activation is inactive: -15%.

Regarding `CCOCCCNC(=O)c1ccc(-n2c(-c3ccccc3)cc3c2CCC(C)C3)cc1` (centres undefined), the activation was inactive: -36.2%.

On to `COc1ccc(-c2csc3ncnc(Nc4cccc(OC)c4)c23)cc1`, for which the activation is inactive: -0.0939%.

Turning to `COc1ccc(C(=O)Nc2ccc3nc(SCC(=O)N4CCc5ccccc54)sc3c2)cc1`, the activation was inactive: -5.32%.

Take `Cc1ccc2c(c1)C(c1ccc(F)cc1)N(C(=O)c1ccc(S(=O)(=O)N3CCCCC3)cc1)CC(=O)N2` (centres undefined): the activation is inactive: -7.52%.

For `CCC(=O)N1CCc2cc(Br)cc(S(=O)(=O)CCC(=O)N3CCN(c4cccc(C)c4)C(C)C3)c21` (centres undefined), the activation is inactive: -13.2%.

`CCc1ccc(S(=O)(=O)Nc2ccc3c(c2)n(C)c(=O)c(=O)n3C)cc1`: the activation is inactive: 1.8%.

Turning to `O=C(NCc1ccc(Cl)cc1)NCc1noc2ccccc12`, the activation is inactive: 3.67%.

`COc1ccc(NC(=O)CCNS(=O)(=O)c2ccc3c(c2)CCCC(=O)N3)cc1Cl`: the activation was inactive: 13.1%.

As for `COc1ccc(-n2nc3cc(C)c(NC(=O)c4ccc(-c5ccc(Cl)cc5)o4)cc3n2)cc1`, the activation is inactive: 1.03%.

In the case of `Cc1cc(OCC(=O)Nc2cc(-c3nc4ncccc4o3)ccc2C)ccc1Cl`, the activation was inactive: 0.712%.

With `COC(=O)c1ccccc1NC(=O)C1=CC(c2cccs2)=NS(=O)(=O)N1C`, the activation was inactive: -1.36%.

Consider `Cc1ccc(S(=O)(=O)c2nnn(-c3ccc(F)c(Cl)c3)c2N)cc1`, for which the activation was inactive: -10.9%.

With `Cc1nn(CC(=O)Nc2ccc(OC(F)(F)F)cc2)c(=O)c2c(C)n(-c3ccc(Cl)cc3)nc12`, the activation is inactive: -5.06%.

Consider `Cc1cccc(C)c1Nc1c(-c2ccccn2)nc2c(C)cccn12`, for which the activation was inactive: -34.4%.

Take `CCOc1ccc2nc(N3CCCC(C(=O)NCCc4ccc(OCC)c(OCC)c4)C3)sc2c1` (centres undefined): the activation was inactive: -10.4%.

For the compound `COc1ccc(CCNC(=O)c2nc(-c3ccc(Cl)cc3)n3c2CCCCC3)c(OC)c1`, the activation was inactive: -14.5%.

As to `Cc1ccc(C)c(N2CCN(S(=O)(=O)c3ccc4c(c3)C(C(C)C)C(=O)N4)CC2)c1` (centres undefined), the activation was inactive: 33.1%.

As for `CSc1ncc(C(=O)NCc2ccccc2F)c(-c2ccccc2)n1`, the activation is inactive: -3.97%.

Consider `CCCc1ccc(OCC(=O)Nc2sc(C(=O)OCC)c(C)c2C(=O)OCC)cc1`, for which the activation was inactive: -4.52%.

For `CCc1ccccc1NS(=O)(=O)c1ccc2[nH]cc(C(=O)N(CC)Cc3ccccc3)c(=O)c2c1`, the activation was inactive: -0.339%.

For the compound `COc1ccc(C2NC(=O)N(C)C3=C2C(=O)N(c2ccc(C(=O)O)cc2)C3)cc1` (centres undefined), the activation is inactive: -8.42%.

For `COc1ccc(OC)c(C2CC(=O)Nc3c2c(=O)[nH]c2ncnn32)c1` (centres undefined), the activation was inactive: 16.2%.

Turning to `CCc1ccc(C2CC(=O)c3c([nH]c(C(=O)OC4CCCC4)c3C)C2)cc1` (centres undefined), the activation was inactive: -5.22%.

For the compound `COc1cccc(-c2nc(CS(=O)(=O)CC(=O)N3CCN(c4cc(C)ccc4C)CC3)c(C)o2)c1`, the activation is inactive: 3.86%.

With `CCOC(=O)c1ccc(CN(Cc2ccc(F)cc2)S(=O)(=O)c2ccc(F)c(C(=O)Nc3c(C)cccc3C)c2)cc1`, the activation was inactive: -27.4%.

Turning to `CCc1ccc2occ(CC(=O)Nc3c(C(=O)c4ccc(C)cc4)oc4ccccc34)c2c1`, the activation is inactive: 5.69%.

As for `CCOc1ccc(NC(=O)Cn2c(=O)n(CCCCCC(=O)NCc3ccccc3)c(=O)c3sccc32)cc1`, the activation is inactive: -3.22%.

Consider `O=[N+]([O-])c1cccc(S(=O)(=O)NCCNS(=O)(=O)c2cccc([N+](=O)[O-])c2)c1`, for which the activation was inactive: 0.264%.

With `COc1ccc(S(=O)(=O)Nc2c(C)nc3nc[nH]n3c2=O)cc1`, the activation is inactive: -20.2%.

With `Cc1cc(S(=O)(=O)C(CNC(=O)c2ccc(F)c(F)c2)c2cccs2)ccc1F` (centres undefined), the activation is inactive: -7.26%.

For the compound `Cc1cc(C)c2c(CC(=O)Nc3ccc(S(=O)(=O)Nc4nc(C)cc(C)n4)cc3)coc2c1`, the activation was inactive: -3%.

On to `COc1ccc(CNC(=O)c2cc3cc(OC)ccc3oc2=O)cc1`, for which the activation was inactive: -5.55%.

With `Cc1ccc(S(=O)(=O)n2nc(-c3ccc(Cl)cc3)nc2NCc2ccc(F)cc2)cc1`, the activation is inactive: -6.53%.

The record behind these values is PubChem BioAssay AID1346428 (National Center for Advancing Translational Sciences (NCATS), 2018).
